Data reported in PubChem BioAssay AID463173 (ICCB-Longwood Screening Facility, Harvard Medical School, 2010).
The campaign covered roughly 52,000 compounds. About 1,700 (3.3%) were called active. No stated cut-off is given here; in the data, active means survival mostly below about 52% (no sharp cut-off); inactive means mostly above about 56%. The list shows a part of the results.

tested on: Wild type; experiment: S. aureus survival, RN4220 and DeltatarO strains – OD600, teichoic acid synthesis inhibitors, primary screen (AID 463173); conditions: S. aureus RN4220 wild type/DeltatarO growth, OD600, 18 h, stronger effect = lower value, screened at 18.75 µg/mL (by protocol)

Compound	survival
COc1ccc(CN(C(=O)c2cc(=O)c3ccccc3o2)C2CCS(=O)(=O)C2)cc1OC (stereo unspecified)	inactive: 118%
Cc1cccc(NC(=O)C(NS(=O)(=O)c2cccc3nsnc23)c2ccccc2)c1C (stereo unspecified)	inactive: 90%
CC(C)(C)OC(=O)N1CCC(c2c(C(=O)N3CCN(c4ccccn4)CC3)cnn2-c2cccc(F)c2)CC1	inactive: 90%
Cc1ccc(NC(=O)Cn2c(=O)n(Cc3ccco3)c(=O)c3sc4ccccc4c32)c(C)c1	inactive: 87%
Cc1ccc(-n2c(C)cc(/C=C(/C#N)c3ccccc3)c2C)cc1	inactive: 102%
COc1ccc(N2CCN(S(=O)(=O)c3cc(Br)cc4c3N(C(=O)C3CC3)CC4)CC2)cc1	inactive: 90%
CCOC(=O)c1ccc(NS(=O)(=O)c2ccc3c(c2)CCN3C(=O)CC)cc1	inactive: 86%
COc1cc2c(=O)c(S(=O)(=O)c3ccc(C(C)C)cc3)cn(Cc3ccccc3C)c2cc1OC	inactive: 94%
Cc1ccc(C(=O)NCC(c2ccco2)S(=O)(=O)c2ccccc2)cc1C (stereo unspecified)	inactive: 72%
CCOC(=O)c1c(C)c(-c2ccccc2)n(CC(=O)NCc2ccccc2)c1C	inactive: 87%
Cc1cc(C)c(Cn2c(=O)n(Cc3ccccc3)c(=O)c3c(C)c(C)sc32)c(C)c1	inactive: 82%
O=C(Nc1cccc(C(F)(F)F)c1)c1cc2nc(-c3ccco3)cc(C(F)(F)Cl)n2n1	inactive: 71%
O=C(CSc1nccn1Cc1ccccc1)Nc1nc2ccccc2s1	inactive: 121%
COc1ccc(OC)c(NC(=O)COCc2cc(-c3ccco3)on2)c1	inactive: 22%
N#CC(C#N)=Cc1cn(-c2ccccc2)nc1-c1ccccc1	inactive: 113%
C1CCC(Nc2nc(N3CCOCC3)nc(N3CCOCC3)n2)CC1	inactive: 105%
CCOC(=O)c1cc(-c2ccccc2)n(CCC(=O)NCCc2ccc(C)cc2)c1C	inactive: 73%
COc1ccc(OCC(=O)N2CCN(S(C)(=O)=O)CC2)cc1	inactive: 106%
COc1ccc(-n2nc(C(=O)N3CCCCC3)c3c4ccccc4n(C)c3c2=O)cc1Cl	inactive: 124%
Cc1ccc(S(=O)(=O)c2nnn(CC(=O)Nc3ccccc3C)c2N)cc1	inactive: 94%
Cc1ccc(Nc2nc3c(S(=O)(=O)c4ccccc4)nnn3c3ccsc23)c(C)c1	inactive: 97%
Cc1cccc2sc(N(CCCN(C)C)C(=O)c3ccc(Cl)s3)nc12	inactive: 80%
Cc1ccc(S(=O)(=O)c2cn(CC(=O)Nc3ccc4c(c3)OCO4)c3ccccc3c2=O)cc1	inactive: 84%

Compound	survival
Cc1sc2ncn(CC(=O)N3CCN(c4ccc(F)cc4)CC3)c(=O)c2c1S(=O)(=O)N1CCCCC1	inactive: 88%
COc1ccc(NC(=O)C(C)N2CCN(C)CC2)cc1 (stereo unspecified)	inactive: 104%
COc1ccc2[nH]c(=O)c(CN(CCCN3CCOCC3)C(=O)Nc3ccccc3)cc2c1	inactive: 102%
COc1cccc(NC(=O)CSc2nc(=O)n(Cc3ccco3)c3c2CCC3)c1	inactive: 72%
COc1cc(C2C(C(=O)OCC(C)C)=C(C)N=C3SCCC(=O)N32)ccc1OCc1ccccc1 (stereo unspecified)	inactive: 72%
Cc1cccc(NC(=O)Cn2nnc(C(=O)Nc3ccc(F)c(Cl)c3)c2N)c1	inactive: 95%
CC1=C(C(=O)Nc2ccc(C)cc2C)C(C(C)C)n2nc(SCc3ccccc3Cl)nc2N1 (stereo unspecified)	inactive: 71%
CCOC(=O)n1c(SCC)nc2ccccc21	inactive: 104%
CCN(CC)CCCNC(=O)CSc1c2c(nc3cc(Cl)ccc13)CCCC2	inactive: 84%
Cc1cc(C)c2nc(N(Cc3cccnc3)C(=O)c3ccc(S(=O)(=O)N(C)C)cc3)sc2c1	inactive: 57%
CCN1CCN(c2cc3c(cc2F)c(=O)c(S(=O)(=O)c2ccc(OC)cc2)cn3CC)CC1	inactive: 72%
Cn1c(C(=O)NCc2ccccc2F)cc2oc3ccccc3c21	inactive: 69%
Oc1ccccc1C1OC2CCCCC2C2=CCCCC21 (stereo unspecified)	inactive: 130%
C[n+]1ccc(/C=C/c2ccc(N3CCCC3)o2)cc1	inactive: 88%
O=C(c1ccco1)n1nc(-c2ccccc2)nc1NCc1ccc(F)cc1	inactive: 73%
COc1cccc2sc(N(Cc3cccnc3)C(=O)Cc3ccccc3)nc12	inactive: 89%
Cc1c(C(=O)Nc2cccc(C(F)(F)F)c2)sc2nc3n(c(=O)c12)CCCC3	inactive: 80%
COc1ccc2oc(-c3cccc(NC(=O)c4ccc(C#N)cc4F)c3)nc2c1	inactive: 81%
CCCCNC(=O)c1ccc2c(c1)NC(=O)C(CS(=O)(=O)Cc1cccc(C)c1)N2 (stereo unspecified)	inactive: 128%
CCN1CCN(c2oc(-c3ccc(COc4ccc(C)cc4)o3)nc2C#N)CC1	inactive: 51%
CCCCNc1ncnc2c1nnn2C	inactive: 73%
Cc1ccc(S(=O)(=O)N2CCN(Cc3noc(CCC(=O)N4CCCCC4)n3)CC2)c(C)c1	inactive: 72%
COc1ccc(C2CC(=O)N(Cc3ccc(F)cc3)c3ccccc3S2)cc1 (stereo unspecified)	inactive: 30%

Compound	survival
CN1CCN(CC(=O)N2CCCC2=O)CC1	inactive: 93%
CC(C)Cn1c(=O)c2sccc2n2c(CCCC(=O)NCCc3ccccc3)nnc12	inactive: 98%
COc1cccc(C(=O)NCC(=O)OCc2cc(=O)n3c(C)csc3n2)c1	inactive: 80%
O=C(NC1CCCCC1)N1CC=C(c2ccccc2)CC1	inactive: 115%
COc1cc(C(=O)Nc2ccc3[nH]c(=O)sc3c2)cc(OC)c1OC	inactive: 96%
CC(C)C(=O)N1c2ncnn2C2(CCCCC2)[C@@H]2CCCC[C@@H]21	inactive: 98%
CC1=C(C(=O)Nc2cccnc2)C(c2cccc(F)c2)n2nc(SCc3ccccc3)nc2N1 (stereo unspecified)	inactive: 71%
COc1cccc(NC(=O)Cn2c(=O)n(-c3ccc(Cl)cc3)c(=O)c3oc4ccccc4c32)c1	inactive: 91%
CCOc1ccc(NC(=O)CC2C(=O)N(c3ccccc3)C(=O)N2C2CCCCC2)cc1 (stereo unspecified)	inactive: 69%
C1CN(C(N2CCOCC2)N2CCOCC2)CCO1	inactive: 104%
Cc1nc(Nc2ccc(Cl)cc2)cc(-c2ccccc2)n1	active: -2%
COc1ccc(CNC(=O)c2nc(SC(C)C)ncc2Cl)cc1	inactive: 109%
Cc1ccn2c(Nc3ccc4c(c3)OCO4)c(-c3ccc(N(C)C)cc3)nc2c1	inactive: 90%
COc1cccc(C2CC(=O)NC(SC)=C2C#N)c1 (stereo unspecified)	inactive: 107%
O=c1c2cn[nH]c2nc(SCc2cccc(Br)c2)n1-c1ccc(Cl)cc1	inactive: 127%
COc1ccccc1CNC(=O)NCc1noc2ccc(C)cc12	inactive: 77%
O=C(COC(=O)c1ccco1)NCC1CCCO1 (stereo unspecified)	inactive: 101%
CCOC(=O)c1c(-c2ccccc2)csc1NC(=O)c1cc(-c2ccc(Br)cc2)on1	inactive: 77%
Cc1nc2ccc(S(=O)(=O)CCC(=O)Nc3ccc(C)c(C)c3)cc2s1	inactive: 113%
CCN1C(=O)C2C(c3ccc(O)cc3)NC(CO)(C(=O)OC)C2C1=O (stereo unspecified)	inactive: 108%
CCOc1ccc(CCNC(=O)CCc2c(C)nc3c(-c4ccccc4)c(C)nn3c2C)cc1OCC	inactive: 72%
COCCCNC(=O)c1sc2nc3n(c(=O)c2c1C)CCC3	inactive: 85%
COc1ccccc1CNC(=O)CN1C(=O)COc2ccc(S(=O)(=O)N3CCC(C)CC3)cc21	inactive: 85%

Compound	survival
O=C(Cn1cc(S(=O)(=O)N2CCCC2)c(S(=O)(=O)N2CCCC2)c1)Nc1cccc(F)c1	inactive: 68%
Cc1nc(Cc2ccc(OC(C)C)cc2)[nH]c(=O)c1CC(=O)O	inactive: 105%
C=CCC(CC=C)(CNC(=O)C(=O)Nc1cc(C)ccc1OC)c1ccc(OC)c(OC)c1	inactive: 92%
CCOc1ccc(C2=NC(c3ccc(OC)cc3)=Nc3ccc(Cl)cc3N2)cc1	inactive: 69%
COc1ccc(Cn2c(=O)sc3ccccc32)cc1	inactive: 111%
O=C(NC1CC2CCCC(C1)N2Cc1ccccc1)C1CC1 (stereo unspecified)	inactive: 104%
CCc1ccc(NC(=O)C(C)n2nnc3sc(-c4ccccc4)cc3c2=O)cc1 (stereo unspecified)	inactive: 97%
COc1ccc(NC(=O)/C(C#N)=C/c2cc(C)n(-c3ccc(F)cc3)c2C)cc1	inactive: 97%
CCOC(=O)c1cccc(NC(=O)C2CCCN(S(=O)(=O)c3ccc4c(c3)oc(=O)n4C)C2)c1 (stereo unspecified)	inactive: 82%
Cc1nc2nncn2c(NCc2ccc(Cl)cc2)c1C	inactive: 87%
Cc1ccc(-n2c(=O)c3c4c(sc3n(Cc3cccc(Cl)c3)c2=O)CCC4)cc1C	inactive: 108%
CC(C)C(=O)N(Cc1ccccc1)S(=O)(=O)c1ccc2c(c1)oc(=O)n2C	inactive: 82%
Cc1ccc(Cl)cc1NC(=O)Cn1c(=O)n(CCCS(=O)(=O)C2CCCCC2)c(=O)c2ccccc21	inactive: 55%
Cc1csc2nc(COC(=O)c3ccccc3NC(=O)COc3ccccc3F)cc(=O)n12	inactive: 83%
Cc1nc2nc(SCC(=O)O)nn2c(C)c1Cc1c(F)cccc1Cl	inactive: 66%
Cc1ccc(CN(C(=O)COc2ccc(Cl)c(C)c2)C2CCS(=O)(=O)C2)o1 (stereo unspecified)	inactive: 90%
OCCNc1nc2ccccc2n1CCOc1ccccc1	inactive: 115%
C=CCn1c(-c2ccccc2)n[nH]c1=S	inactive: 105%
COc1ccc(-c2c3c(=O)n(C)c(=O)n(C)c3c3c(-c4cccc(C)c4)nc4ccccc4n23)cc1	inactive: 91%
COc1ccc2cc3cc(C(=O)N4CCN(c5cccc(Cl)c5)CC4)sc3nc2c1	inactive: 83%
CCc1ccc(CCC(=O)Nc2ccc(S(N)(=O)=O)cc2)o1	inactive: 127%
COc1ccc(NS(=O)(=O)c2ccc3c(c2)CCN3C(=O)CCC(=O)O)cc1Cl	inactive: 73%
